# Source: article PMC4336329 (PLoS ONE, 2015)
# About 14,000 (4.5%) of roughly 310,000 compounds showed an effect of 50% or more. Effects have a minus sign here. The list shows a part of the results.
# Target: human ether-à-go-go-related gene (hERG) potassium channel (human, UniProt Q12809)
# Assay: primary screen, population patch clamp on CHO cells stably expressing hERG
# 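Also: peak tail current of the secondary pulse compared with the same well before compound.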
# Sequence of human ether-à-go-go-related gene (hERG) potassium channel (Q12809 whole entry, looked up): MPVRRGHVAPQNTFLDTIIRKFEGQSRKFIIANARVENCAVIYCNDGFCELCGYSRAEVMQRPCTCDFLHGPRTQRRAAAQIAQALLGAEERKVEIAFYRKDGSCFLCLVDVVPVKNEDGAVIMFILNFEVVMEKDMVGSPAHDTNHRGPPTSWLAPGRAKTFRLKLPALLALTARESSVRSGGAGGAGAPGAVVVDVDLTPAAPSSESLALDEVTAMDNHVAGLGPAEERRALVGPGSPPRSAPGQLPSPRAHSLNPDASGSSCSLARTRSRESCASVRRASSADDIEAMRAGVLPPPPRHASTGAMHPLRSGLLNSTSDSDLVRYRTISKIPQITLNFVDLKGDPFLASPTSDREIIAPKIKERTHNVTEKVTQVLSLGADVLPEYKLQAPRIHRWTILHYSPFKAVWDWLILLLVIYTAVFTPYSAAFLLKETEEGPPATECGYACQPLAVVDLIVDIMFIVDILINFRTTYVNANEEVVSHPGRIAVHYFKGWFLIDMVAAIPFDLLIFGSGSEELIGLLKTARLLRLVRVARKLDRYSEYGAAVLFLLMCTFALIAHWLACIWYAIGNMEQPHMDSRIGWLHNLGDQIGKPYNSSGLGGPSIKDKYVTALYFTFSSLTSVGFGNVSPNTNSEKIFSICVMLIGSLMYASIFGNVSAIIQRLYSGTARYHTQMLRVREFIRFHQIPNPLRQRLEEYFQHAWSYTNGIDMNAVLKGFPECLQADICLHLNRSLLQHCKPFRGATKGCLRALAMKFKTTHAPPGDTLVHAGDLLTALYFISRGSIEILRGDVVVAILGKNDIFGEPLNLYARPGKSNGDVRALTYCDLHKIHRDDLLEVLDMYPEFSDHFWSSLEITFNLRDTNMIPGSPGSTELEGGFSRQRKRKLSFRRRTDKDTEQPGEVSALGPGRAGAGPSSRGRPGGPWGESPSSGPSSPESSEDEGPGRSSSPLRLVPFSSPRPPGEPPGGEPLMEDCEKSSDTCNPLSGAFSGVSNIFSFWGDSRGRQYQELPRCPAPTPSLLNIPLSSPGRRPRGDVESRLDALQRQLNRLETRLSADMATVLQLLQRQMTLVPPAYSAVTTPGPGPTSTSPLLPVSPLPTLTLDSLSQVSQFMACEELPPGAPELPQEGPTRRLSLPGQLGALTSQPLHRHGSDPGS
row,SMILES,"hERG current change (%, negative = inhibition) at 10uM"
1,Cc1c(C(=O)NC2CCCC2)oc2ccccc12,-21.5%
2,CCOC(=O)Cc1csc(SCC(=O)Nc2ccc3[nH]c(=O)[nH]c3c2)n1,20.4%
3,COc1cc(O)c(C(C)=O)cc1OC,19.1%
4,O=C(CCCOc1ccccc1)NCC1CCCO1 (stereo not drawn),3.66%
5,CCn1c(SCC(=O)c2ccc(NS(=O)(=O)c3ccccc3)cc2)nnc1-c1cccs1,0.372%
6,CCOC(=O)C1CCN(C(=O)C2(NC(=O)Nc3cccc(F)c3)CCCCC2)CC1,12.4%
7,CCCc1cc(NC(=O)CCl)n(-c2ccccc2)n1,-3.54%
8,COc1c(N2CCNC(C)C2)c(F)cc2c(=O)c(C(=O)O)cn(C3CC3)c12 (stereo not drawn),4.21%
9,COc1ccc(-c2nc(CS(=O)CC(=O)NC3CCC(C)CC3)c(C)o2)cc1OC (stereo not drawn),-34.6%
10,COc1ccc(N(C)C(=O)c2ccc3snnc3c2)cc1,-0.703%
11,COc1cccc(C2=CC(=O)C[C@H](c3ccc(Cl)cc3)C2)c1,15.4%
12,CC(NC(=O)CSc1ccccc1C(=O)O)C1CC2CCC1C2 (stereo not drawn),20.6%
13,O=C(CSc1nnc(Cc2ccccc2)o1)Nc1ccc2c(c1)OCO2,10.5%
14,CN(C)CCNC(=O)c1cc2c(=O)n(C)c3ccccc3c2n1C,2.09%
15,O=C1N(CN2C(=O)C3(OCCO3)c3ccccc32)c2ccccc2C12OCCO2,17.1%
16,C/C(=N\NC(=O)c1cc(C)nc2ccc(C)cc12)c1ccncc1,10.8%
17,COc1ccc(N=C2SC(C(=O)N3CCN(c4ccccc4)CC3)CC(=O)N2C)cc1 (stereo not drawn),-13%
18,Cc1ccc2cc(C#N)c(N3CCCN(C(=S)NCCCN(C)C)CC3)nc2c1,-11.4%
19,CN(C)CCCOc1cccc(Cl)c1.O=C(O)C(=O)O,-19.5%
20,COc1cccc(CNC(=O)N2CCN(c3ccccc3)CC2)c1,-6.56%
21,N#C/C(=C/c1ccc(CNS(=O)(=O)c2ccccc2)o1)C(N)=O,11.2%
22,Cn1nnc(NC(=O)/C=C/c2ccco2)n1,8.33%
23,CCOC(=O)C1CSC(CC(=O)Nc2ccc(Cl)c(Cl)c2)C(=O)N1 (stereo not drawn),-24.2%

row,SMILES,"hERG current change (%, negative = inhibition) at 10uM"
1,Cl.N#CCCN(/N=C/c1cccnc1)C1=NS(=O)(=O)c2ccccc21,-22.3%
2,CCC(C)NC(=O)CSc1nc2scc(-c3ccccc3)c2c(=O)[nH]1 (stereo not drawn),-1.07%
3,COCCN(C(=O)C1CCCO1)c1c(N)n(CC(C)C)c(=O)[nH]c1=O (stereo not drawn),5.16%
4,CC(C)c1ccc(NC(=O)N2C[C@H]3C[C@@H](C2)c2cccc(=O)n2C3)cc1,7.01%
5,Cc1cccc(NC(=O)CCN2CCCCC2)c1.Cl,-10.9%
6,C1CCC(NC2CCCCC2)CC1,17.1%
7,Cc1ccc(OCC(=O)Nc2ccc(S(=O)(=O)Nc3ccccn3)cc2)c(C)c1,12.8%
8,CCOC(=O)c1c(CSc2nc(C)cc(C)c2C#N)n(C)c2cc(Br)c(OC(C)=O)cc12,8.76%
9,C[C@H](NC(=O)OC(C)(C)C)c1nnc(SCC(N)=O)o1,3.45%
10,COC(=O)c1sccc1S(=O)(=O)NCc1ccc(S(N)(=O)=O)cc1,2.03%
11,O=C(O)CS(=O)(=O)CC(=O)O,14.2%
12,CCOC(=O)c1c(NC(C)=O)sc2c(O)c(Br)ccc12,6.88%
13,O=C(N[C@@H](Cc1ccc(O)cc1)C(=O)O)c1ccc(C(F)(F)F)cc1,13.5%
14,Cc1ccc(C(=O)N/C(=C/c2ccco2)C(=O)Nc2cccc(C)c2)cc1,-16.7%
15,CCOC(=O)CSc1nnc(NC(=O)c2cc([N+](=O)[O-])cc([N+](=O)[O-])c2)s1,-8.83%
16,O=C(CSc1nccc(=O)[nH]1)N1CCN(c2ccccc2)CC1,14.8%
17,COc1ccc(CCC(C)Nc2cccc(F)c2)cc1 (stereo not drawn),-4.46%
18,COc1cccc(C(=O)NCCNC(=O)c2ccco2)c1.O=C(O)C(=O)O,12.3%
19,Cc1cc(C)nc(NS(=O)(=O)c2ccc(NC(=O)c3ccco3)cc2)n1,0.81%
20,Cc1ccnc(SC2CC(=O)N(c3ccc(C(C)C)cc3)C2=O)n1 (stereo not drawn),0.452%
21,C=C1CCN([C@H](C(=O)NCc2ccc(Cl)cc2)C(C)C)S(=O)(=O)c2ccccc21,-6.02%
22,COc1cccc(C2CC(C(F)(F)F)n3ncc(C(=O)O)c3N2)c1 (stereo not drawn),19.3%
23,COc1ccc(N(C(=O)COc2ccccc2OC)S(=O)(=O)c2ccc(C)cc2)cc1,5.52%

row,SMILES,"hERG current change (%, negative = inhibition) at 10uM"
1,COc1ccc(C(=O)NNc2ccccc2)cc1,-3.28%
2,C[C@]12CCC(=O)C[C@@H]1CC[C@@H]1[C@@H]2CC[C@]2(C)[C@@H](C(=O)COC(=O)CCC(=O)O)CC[C@@H]12,20.4%
3,O=C(NNC(=O)c1sccc1-n1cccc1)c1ccc(F)cc1,-5.95%
4,O=C(Cn1cc(C(F)(F)F)ccc1=O)N1CCN(S(=O)(=O)c2ccc(Cl)cc2)CC1,-8.9%
5,Cl.NCCCC(=O)N1c2ccccc2Sc2ccccc21,-15.8%
6,Cc1nnc(NC(=O)CSCc2c(C)noc2C)s1,-2.88%
7,COCC(C)n1c(SCC(=O)N(C)C2CCS(=O)(=O)C2)nc2ccccc2c1=O (stereo not drawn),9.86%
8,Cc1c(N2C(=O)CSC2c2ccccc2)c(=O)n(-c2ccccc2)n1C (stereo not drawn),18.5%
9,O=C(NCc1ccco1)c1ccccc1SCC(=O)N1CCCC1,-4.74%
10,COc1ccc(NC(=O)COc2coc(CN3CCN(c4ccccc4)CC3)cc2=O)cc1,11.5%
11,COCCNC(=O)COC(=O)/C=C/c1c(C)nn(Cc2ccc(Cl)cc2Cl)c1Cl,-9.14%
12,CCn1c2ccccc2c2cc(NC(=O)Cc3ccc(S(=O)(=O)N4CCOCC4)s3)ccc21,-2.48%
13,Cc1ccsc1C(=O)N1CCN(S(=O)(=O)c2cccc(F)c2)CC1,-8.65%
14,COc1ccc(N2C(=O)CC(C#N)=C2N)cc1,27.8%
15,Cc1ccc(NC(=O)/C(=C\c2ccccc2)NC(=O)c2ccco2)cc1,-13%
16,O=C(O)c1ccc2c(=O)n3c(nc2c1)/C(=C/c1ccc(C(F)(F)F)cc1)CC3,11.6%
17,O=C(NCCN1CCCC1)c1ccc2c(c1)N(Cc1cccc(Cl)c1)C(=O)c1ccccc1S2(=O)=O,-20.7%
18,CCNC(=S)NNC(=S)NCc1ccccc1,13%
19,CC(C)(C)c1[nH]ncc1[N+](=O)[O-],13.8%
20,CCOC(=O)C1CCN(S(=O)(=O)c2ccc(-c3ccccn3)s2)CC1,-5.46%
21,Cn1c(COc2ccc(Cl)cc2)nnc1SCC(=O)NC1CCCCC1,-2.02%
22,COCCn1nnnc1C(c1cccs1)N1CCN(c2nc3ccccc3s2)CC1 (stereo not drawn),-25.3%
23,Cc1cccc(N(CC(=O)Nc2ccccc2F)S(C)(=O)=O)c1,0.848%

row,SMILES,"hERG current change (%, negative = inhibition) at 10uM"
1,Cc1nc(N)sc1-c1csc(Nc2ccc(Cl)cn2)n1,3.85%
2,Fc1ccccc1/C=N/n1cnnc1,22.9%
3,CCCCOc1ccccc1C1C(C(=O)OC)=C(C)N(C)C(C)=C1C(=O)OC,-3.3%
4,COc1ccc(CC(=O)Nc2nc(C(C)(C)C)cs2)cc1,-1.81%
5,CC(=O)Nc1ccc(OCC(=O)NC(C)C(C)C)cc1 (stereo not drawn),12.6%
6,COc1cc(/C=N\NC(=O)c2ccc(-c3ccccc3)cc2)ccc1OCC(N)=O,19.6%
7,COc1cc(N(C(=O)Cc2cccs2)C(C(=O)NC2CCCCC2)c2ccc(C)cc2)ccc1-n1cnnn1 (stereo not drawn),7.08%
8,COc1ccc(N(CC(=O)N2CCOCC2)S(C)(=O)=O)c(OC)c1,10.8%
9,CCN1CCN(C(=S)NCc2ccc(C)cc2)CC1,-7.93%
10,O=C(Nc1ccc2c(c1)oc1ccccc12)c1ccc2c(c1)OCO2,15.1%
11,COc1ccc(S(=O)(=O)Nc2ccc(S(=O)(=O)N(C)C)cc2)cc1[N+](=O)[O-],-1.26%
12,O=C(Nc1ccc(Cl)cc1)Nc1ccccc1NS(=O)(=O)c1cccs1,23.6%
13,COc1ccccc1C(=O)NC(C)c1ccccc1 (stereo not drawn),18.6%
14,Cc1ccc(CCNC(=O)NC(C)(C)C)cc1,1.58%
15,Cc1nn(-c2ccc(F)cc2)c(Cl)c1/C=C(\CC(=O)O)c1nc2ccccc2s1,-9.29%
16,O=C(Nc1ccc(S(=O)(=O)N2CCCCC2)cc1)c1ccc(CN2CCOCC2)cc1,-46.5%
17,CCCCOc1ccc(C(=O)CCN2CCCCC2)cc1.Cl,-61.5%
18,CCOc1ccccc1C(C(=O)NC1CCCC1)N(Cc1ccco1)C(=O)CNC(=O)c1ccco1 (stereo not drawn),-5.58%
19,COc1ccc(CNCCCO)cc1OC,4.57%
20,N#CC1CN(C(c2ccccc2)c2ccccc2)C1,12.8%
21,COC(=O)C/C(N)=C(\C#N)C(=O)OC,8.1%
